The campaign covered roughly 420,000 compounds. About 50,000 (12%) were called active. The shares of active, inactive and inconclusive entries below differ from those in the screen. Calls follow the shape of the dose curve; as a rule, active = well fitted inhibition curve with a large enough effect; inconclusive = small, poorly fitted or top-dose-only effect; inactive = flat fitted curve, though single readings scatter. Potencies of inconclusive entries are left out as doubtful fits.
Assay: qHTS for Inhibitors of human tyrosyl-DNA phosphodiesterase 1 (TDP1): qHTS in cells in presence of CPT; also: nearly all actives have a fitted effect of over 55% in size
Conditions: chicken DT40 Tdp1-/-;hTDP1 cells + 20 nM CPT, ATP luminescence, 48 h; series mostly up to 46.2 µM
Summary of the method: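 Chicken DT40 Tdp1-/- cells complemented with human TDP1, 400 cells/well, exposed to compounds plus 20 nM camptothecin for at least 48 h at 37 C; viability read as ATP content by CellTiter-Glo luminescence.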
Potency is read from the fitted curve at half-maximal effect; tags tell the direction and shape of the fitted curve.

Row | Structure (SMILES) | Potency
1 | N/C(=N\OS(=O)(=O)c1ccc2ccccc2c1)c1ccccn1 | inactive
2 | CC1CCc2c(C(=O)Nc3ccc(OC(F)(F)F)cc3)csc2C1 (stereo unspecified) | inconclusive [inhibitor, single point]
3 | COc1cc2sc3cc(NCc4ccc(C)o4)ccc3c(=O)c2cc1OC | inconclusive [inhibitor, single point]
4 | CSc1nnc(-c2ccccc2N=Cc2c(C)[nH]n(-c3ccc4ccccc4c3)c2=O)c(=O)[nH]1 | active: 20.6 µM
5 | CCCCC1CCC(C(=O)N(CC(C)C)c2c(N)n(CCCC)c(=O)[nH]c2=O)CC1 (stereo unspecified) | inconclusive [inhibitor, single point]
6 | COc1cccc(CN2CCCC(C(=O)Nc3ccc(-c4cscn4)cc3)C2)c1 (stereo unspecified) | inconclusive [inhibitor, single point]
7 | COCCNCC(=O)Nc1ccccc1Sc1ccccc1 | inconclusive [inhibitor, partial curve]
8 | COc1ccc(CN2CCC(n3nccc3NC(=O)c3ccc4c(c3)OCO4)CC2)cc1C | inactive
9 | COc1ccc2cc(C(=O)N3CCN(Cc4ccc5c(c4)OCO5)CC3)[nH]c2c1 | inactive
10 | O=C(Nc1cccc(S(=O)(=O)N2CCOCC2)c1)C12CC3CC(CC(C3)C1)C2 | inconclusive [inhibitor, single point]
11 | O=C(COC(=O)c1ccc(O)cc1O)N=c1sccn1Cc1ccccc1Cl | inconclusive [inhibitor, single point]
12 | Cc1nn(-c2ccc(N3CCCC3)nn2)c(C)c1CCC(=O)N1CCN(c2ccccc2)CC1 | inconclusive [inhibitor, single point]
13 | Cc1cc(=O)[nH]c(SC/C=C/c2ccccc2)n1 | inconclusive [inhibitor, single point]
14 | CCc1ccc(OCCCCn2c(CCNC(=O)C3CCCCC3)nc3ccccc32)cc1 | active: 7.08 µM
15 | CC(NC(=O)CCSc1nc(-c2ccc3c(c2)OCO3)cc(C(F)(F)F)n1)c1ccccc1 (stereo unspecified) | active: 23.1 µM
16 | CCOC(=O)N1CCN(CC(O)COc2ccccc2C(C)C)CC1 (stereo unspecified) | inconclusive [inhibitor, single point]
17 | Cc1ccc(C(=O)N2CCN(Cc3nc4sc5c(c4c(=O)[nH]3)CCCC5)CC2)cc1 | active: 29.1 µM
18 | COc1ccc(CNC(=O)c2ccc(C(C)(C)C)cc2)cc1 | inactive
19 | COC(=O)c1ccc(C(=O)OC)c(NC(=O)c2cnn3c(C(F)F)cc(-c4ccccc4)nc23)c1 | inactive
20 | COc1ccccc1C(=O)Nn1c(-c2cccs2)nc2ccccc2c1=O | active: 18.4 µM
21 | CO/N=C(\C(=O)N[C@@H]1C(=O)N2C(C(=O)[O-])=C(C[n+]3cccc4c3CCC4)CS[C@H]12)c1csc(N)n1 | inconclusive [inhibitor, single point]
22 | Cc1cnccc1CN(C)Cc1cn(C)nc1-c1ccc(Oc2ccccc2)cc1 | inconclusive [inhibitor, single point]
23 | Cc1[nH]c2ccccc2c1C1(O)C(=O)N(Cc2ccccc2Cl)c2ccccc21 (stereo unspecified) | active: 5.8 µM
24 | COc1ccc(CN2CCC2(C)C(=O)Nc2ccc(OC)c(OC)c2)cc1 (stereo unspecified) | inconclusive [inhibitor, single point]

Row | Structure (SMILES) | Potency
25 | COc1ccc(OC)c(NC(=O)CSc2nnc(Cc3cccn3C)n2-c2ccc(F)cc2)c1 | inconclusive [inhibitor, single point]
26 | CCOC(=O)c1c(NC(=O)C2CCCO2)sc(C(N)=O)c1C (stereo unspecified) | inactive
27 | O=C(COC(=O)c1cc(-c2ccc(Cl)s2)nc2ccccc12)NCc1ccco1 | active: 18.4 µM
28 | CCOc1cccc2cc(C(=O)NCc3ccccc3)c(=N)oc12 | inconclusive [inhibitor, single point]
29 | C=CCN(CC=C)S(=O)(=O)c1ccc(NC(=S)NC(=O)/C=C/c2ccccc2)cc1 | inconclusive [inhibitor, single point]
30 | COc1cccc(NC(=O)c2cccc(OC)c2OC)c1 | inactive
31 | CC(O)(c1ccccc1)c1nc(-c2cccc(C#N)c2)cs1 (stereo unspecified) | inconclusive [inhibitor, single point]
32 | COc1cc(NC(=O)Cc2cccs2)c(C(=O)O)cc1OC | inactive
33 | COC(=O)C(NC(=O)CCc1c(C)nc2c(c(C)nn2-c2ccccc2)c1C)C(C)C (stereo unspecified) | active: 16.4 µM
34 | COc1ccccc1N1CCN(C(=O)CSc2n[nH]c(-c3ccccc3Cl)n2)CC1 | inconclusive [inhibitor, single point]
35 | CCOc1ccc(OCC)c(NC(=O)CCc2nc3cccnc3n2-c2ccccc2)c1 | active: 20.6 µM
36 | COc1ccc(/C=N/Nc2nc(Nc3ccccc3)nc(N3CCCC3)n2)cc1 | inconclusive [inhibitor, single point]
37 | CC1CCCCN1CCNC(=O)c1ccc2c(c1)N(Cc1ccccc1F)C(=O)c1ccccc1S2=O (stereo unspecified) | inactive
38 | CC(=O)Nc1ccc(C(=O)CSc2nccc(=O)[nH]2)cc1 | inactive
39 | Cc1cc(Cl)c(S(=O)(=O)N2CCCC2)cc1OCC(N)=O | inactive
40 | Cc1cc(C)c(S(=O)(=O)/N=C2/C=C(SCC(=O)O)C(=O)c3ccccc32)cc1C | active: 1.84 µM
41 | Clc1ccccc1CN1CCN(/N=C/c2ccncc2)CC1 | active: 13 µM
42 | COc1cc(OC)cc(C(=O)Nc2ccc3nc(Nc4cccc(C(F)(F)F)c4)cc(C)c3c2)c1 | active: 9.2 µM
43 | COc1ccc(C(=O)N(C)CCOc2ccc(Cl)cc2)cc1S(=O)(=O)N1CCCC1 | inconclusive [inhibitor, single point]
44 | COc1ccc(C(C)(C)C)cc1NC(=O)c1cncc(Br)c1 | inconclusive [inhibitor, single point]
45 | COc1ccc(N2C(=O)/C(=C/c3ccc([N+](=O)[O-])cc3)C=C2c2ccccc2)cc1 | active: 3.66 µM
46 | COC(=O)c1ccc(CNC(=O)c2cc(COc3cncc(Cl)c3)on2)cc1 | inconclusive [inhibitor, single point]
47 | O=C(Oc1ccc(Cl)c2cccnc12)c1cccc([N+](=O)[O-])c1 | active: 1.3 µM
48 | O=C(NCc1ccc(F)cc1)c1cnc(N2CCCCC2)c2ccccc12 | inconclusive [inhibitor, single point]

Row | Structure (SMILES) | Potency
49 | Cc1ccccc1CS(=O)(=O)CCC(=O)NCCN1CCN(c2cccc(Cl)c2)CC1 | active: 23.1 µM
50 | c1ccc2c(c1)nc1n2CCC1 | inconclusive [inhibitor, single point]
51 | O=C(NNC(=O)C1CC(c2cccs2)=NO1)Nc1ccc(Cl)cc1 (stereo unspecified) | inactive
52 | CCC(C(=O)NCc1ccccc1)n1c(CSCCOc2ccccc2)nc2ccccc21 (stereo unspecified) | active: 23.1 µM
53 | CCc1nc2c(OCc3ccc(C(F)(F)F)cc3)cccn2c1N(C=O)Cc1ccc(OC)cc1 | active: 20.6 µM
54 | CC1CCCCC1NC(=O)CN1c2cccc3cccc(c23)S1(=O)=O (stereo unspecified) | inconclusive [inhibitor, single point]
55 | C/C(=N\NC(=O)CCC(=O)Nc1ccccc1)c1cccs1 | inconclusive [inhibitor, single point]
56 | Cc1ccc(C)c(N2CCN(CCCNC(=O)Cn3cc4c(n3)CCCCC4)CC2)c1 | active: 4.61 µM
57 | O=C(NC(=S)Nc1ccc(N2CCCCC2)cc1)c1ccco1 | inactive
58 | COc1cccc(CN(Cc2cccnc2)S(=O)(=O)c2ccc(-n3cnnn3)c(C)c2)c1 | inconclusive [inhibitor, partial curve, poor fit]
59 | C#CCn1c(C2CC(=O)N(c3ccc(OCC)cc3)C2)nc2ccccc21 (stereo unspecified) | inconclusive [inhibitor, single point]
60 | CCOC(=O)N1CCC(NC(=O)CSCc2nc(-c3ccccc3Cl)oc2C)CC1 | inconclusive [inhibitor, single point]
61 | COC(=O)[C@H](C)N1C/C=C\COc2c(Cl)cc(Cl)cc2S1(=O)=O | inconclusive [inhibitor, single point]
62 | COc1cc(/C=C/c2c([N+](=O)[O-])c(=O)n(C)c(=O)n2C)cc(OC)c1OC | inconclusive [inhibitor, single point]
63 | COc1ccc(NC(=O)CSc2nc(C)cs2)cc1 | inconclusive [inhibitor, partial curve, poor fit]
64 | Cc1cccc(NC(=O)c2ccc(F)c(S(=O)(=O)N3CCC4(CC3)OCCO4)c2)c1 | inconclusive [inhibitor, single point]
65 | C=C1/C(=C\C=C2/CCC[C@]3(C)[C@@H]([C@H](C)OCCC(C)(C)O)CC[C@@H]23)C[C@@H](O)C[C@@H]1O | active: 15 µM
66 | Nc1ccccc1C(O)(Cc1ccccc1)c1ccccc1 (stereo unspecified) | inactive
67 | Cc1ccc(CCNC(=O)c2ccc3c(c2)N(Cc2ccccc2)C(=O)c2ccccc2S3=O)cc1 (stereo unspecified) | active: 16.4 µM
68 | COc1ccc(N2CCN(c3ncnc4onc(-c5ccc(F)cc5)c34)CC2)cc1 | inconclusive [inhibitor, single point]
69 | CCCN(CC1CCCO1)C(=O)c1cc(COc2cccc(OC)c2)on1 (stereo unspecified) | inconclusive [inhibitor, partial curve]
70 | COCc1ccc(C(=O)N2CCCC(Nc3ccc(C(C)C)cc3)C2)s1 (stereo unspecified) | inconclusive [inhibitor, single point]
71 | Cc1cc(C)c2nc(N3CCCC(C(=O)NCCCN4CCOCC4)C3)sc2c1 (stereo unspecified) | inconclusive [inhibitor, single point]
